Test results published in the supplement of paper PMC3334620.
Whole data set: some 33,000 sequences, median “E-score (-0.5 to 0.5)” near -0.016, cut for the highest 2% near 0.31. The list shows a part of the results.

Each sequence was assayed against Cst6 (UniProt P40535) (assay: PBM E-score (8-mer binding enrichment) (E-score (-0.5 to 0.5)); higher = stronger / more preferred TF binding; most listed sequences are background and not binding sites). Settings: protein concentration: 200 nM; construct: GST-DNA-binding domain.
Procedure: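 Universal 'all 10-mer' protein binding microarrays (Agilent AMADID 015681) probed with GST-tagged S. cerevisiae TFs (full-length or DBD) made by in vitro transcription/translation (PURExpress), about 100-200 nM. Bound TF was detected with fluorescent anti-GST. Each ungapped 8-mer (which stands for itself and its reverse complement) is scored by the PBM enrichment score (E-score), a modified Wilcoxon-Mann-Whitney statistic from -0.5 to +0.5, computed with the Universal PBM Analysis Suite. Scale: above 0.35 generally sequence-specific binding.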

Row | Sequence | PBM E-score
1 | ACGACCGC | -0.276
2 | CTTATAAA | 0.138
3 | CGCAAACA | 0.151
4 | TCAGAAGA | -0.0397
5 | GTCTAGTA | 0.0466
6 | ATGGCTGC | -0.0563
7 | ACTAGTTA | -0.0795
8 | ACGGAACG | 0.132
9 | CCTAATAC | 0.0951
10 | AACTTTAC | 0.098
11 | ATGCACCA | 0.0534
12 | AAGCGAAT | 0.149
13 | CCGGTAGG | -0.201
14 | GCTTCTCA | -0.176
15 | CACTCGGC | -0.0198
16 | AGTCTTTC | -0.164
17 | AACTACTC | 0.0862
18 | CCTCGGGA | -0.236
19 | AGCTTCAT | -0.0493
20 | CCATATCA | 0.13
21 | CGACCCGC | -0.128
22 | ACGCCTGG | 0.0268
23 | GTTTTTTA | 0.213
24 | CGGGCAAC | -0.256
25 | GTACCACA | 0.109

Row | Sequence | PBM E-score
26 | CATAATAG | 0.202
27 | CCGAGTCC | -0.225
28 | AAGATGCA | 0.172
29 | TAATTGAA | 0.156
30 | AGACGAAA | 0.134
31 | CCAGCGCC | -0.137
32 | AATCCCAT | -0.0902
33 | GATCCCGC | -0.175
34 | CGAGATCG | -0.109
35 | ATAAATGA | 0.274
36 | CGCGTCCA | -0.124
37 | GGATACCC | -0.266
38 | CGCCTTTC | 0.118
39 | GGAACGAC | -0.176
40 | GACGAAGC | -2e-05
41 | CATCCCCC | -0.346
42 | CGTCCGAC | -0.102
43 | ATATAGTA | 0.19
44 | GCCGCGAA | -0.109
45 | CTAATAGA | 0.127
46 | ACAAGACC | -0.294
47 | AAGTAGAA | 0.113
48 | ACCAGGAG | -0.28
49 | CGAAATAG | 0.0163
50 | CTCGAAGC | 0.00149

Row | Sequence | PBM E-score
51 | TCTGCGCA | -0.136
52 | CTCATAAG | -0.0254
53 | AGAGGTAC | -0.262
54 | AATTCCTC | 0.05
55 | CCTATATC | 0.0351
56 | GTCGTGGA | -0.0278
57 | ACATGAGT | -0.0508
58 | ACTTGAGC | -0.224
59 | GATTTTAC | 0.133
60 | ATAACCCC | -0.224
61 | CAGTACTA | -0.0344
62 | CCGTGTAC | 0.13
63 | ATCGGGGC | -0.337
64 | ACCAAGGA | -0.0786
65 | AATAGACT | 0.0159
66 | ACTCTCCC | -0.245
67 | ATCGCACG | 0.00811
68 | GAGCGATC | -0.228
69 | TCGGCAAA | 0.00923
70 | AAGCGCGA | -0.0328
71 | GACATAGC | 0.112
72 | CTTCCATC | -0.0839
73 | GATCTTGC | 0.0284
74 | CGACCAGA | -0.109
75 | ATCAGTTG | 0.133

Row | Sequence | PBM E-score
76 | GTCGTTAA | -0.0432
77 | CCCAAAAC | 0.105
78 | AGCCCCTC | -0.278
79 | CATTATGA | 0.272
80 | CACTAGTG | -0.128
81 | CGCACTAC | -0.0555
82 | CCAGCTTC | -0.0983
83 | CCCCTACG | -0.298
84 | CACGGTAG | -0.0968
85 | ACCACTTG | -0.163
86 | CAAGGATA | -0.023
87 | CTGAATAA | 0.232
88 | TAATTATA | 0.299
89 | GGCGAAGA | -0.191
90 | AGACGGGG | -0.288
91 | TCCGATAA | -0.208
92 | AGTGGATA | -0.00533
93 | GAGTATGA | 0.169
94 | ACTATTGA | 0.202
95 | CGGGGGAG | -0.276
96 | TGCACTAA | 0.135
97 | AGCACATC | -0.0663
98 | AGATTCGG | 0.0352
99 | GACGGATA | 0.135
100 | ATCGCTTA | -0.0261

Row | Sequence | PBM E-score
101 | AGTTTCCA | -0.0185
102 | ATTGCTGG | -0.0529
103 | ACGTCTTG | 0.0585
104 | TATCCACA | -0.142
105 | CTATGGAC | -0.0325
106 | CGTAGCTA | -0.0668
107 | AATAATCC | 0.0992
108 | GTACCTAA | 0.00811
109 | ACCCGCCC | 0.103
110 | AACTCTGG | -0.144
111 | CTGGCTAC | -0.133
112 | CGGGCTGC | -0.265
113 | GATTTATA | 0.25
114 | AACCCTGC | -0.187
115 | CACATATG | 0.15
116 | ACAATCCT | 0.0365
117 | ATGTGTCA | 0.286
118 | CAGTCATG | -0.183
119 | CAATACTA | -0.00609
120 | CTTAGAAG | -0.174
121 | AACGACTT | -0.128
122 | GACTCCTA | -0.203
123 | AGCGTATG | -0.191
124 | AGCATCGC | -0.273
125 | AAACGTTG | -0.106

Row | Sequence | PBM E-score
126 | CCCGGGTA | -0.191
127 | CATTCTAC | 0.163
128 | ACGTCGTG | 0.137
129 | CCCCACAG | -0.131
130 | GATCTACC | -0.181
131 | GTTCCTCA | -0.00147
132 | AGCAATAG | 0.0162
133 | AACATACA | 0.129
134 | CGGCTTAA | 0.126
135 | ACCGTGCG | 0.101
136 | GTAGGCAA | -0.0121
137 | AGAGGCTA | -0.205
138 | CGTGCGCC | 0.0377
139 | ATGTGCGA | -0.112
140 | GCGGATAC | 0.048
141 | ATTGGTCC | -0.00831
142 | CACCAAGA | 0.121
143 | ATGGCGGA | -0.262
144 | AACGTTGG | 0.0202
145 | AGGAGACT | -0.207
146 | CACGCTCA | 0.0759
147 | AGTGGCAA | 0.0959
148 | ATAAGTCG | -0.0527
149 | AACCCTCC | -0.241
150 | GGGTAGGA | -0.312

Row | Sequence | PBM E-score
151 | CTAAAGGA | -0.00812
152 | CCGAACGG | 0.0219
153 | CTCCACAA | 0.119
154 | GCCCAAAA | 0.0256
155 | ATTTTTTG | 0.202
156 | GCAAGCGA | 0.0543
157 | CGACAACC | -0.125
158 | AACCAAGA | 0.106
159 | AAGGGATA | 0.0654
160 | CAGCTCGC | -0.143
161 | AGTTGAAT | 0.182
162 | AAAGAGCT | -0.196
163 | TCCACCAA | -0.117
164 | AATTTCTC | 0.151
165 | ATGGACTG | -0.116
166 | CTGAAAGC | 0.0438
167 | AGCTATAG | -0.299
168 | CGACTACA | 0.0376
169 | AGCAAAGA | 0.0178
170 | GGGGGTAC | -0.307
171 | GAAATTTC | -0.162
172 | AGGACCGC | -0.0202
